Data from the supplement of paper PMC3334620.
Whole data set: some 33,000 sequences, median “E-score (-0.5 to 0.5)” near -0.041, cut for the highest 2% near 0.37. The list shows a part of the results.

Biological target: T1, Ecm22 (UniProt Q05958)
T1 sequence: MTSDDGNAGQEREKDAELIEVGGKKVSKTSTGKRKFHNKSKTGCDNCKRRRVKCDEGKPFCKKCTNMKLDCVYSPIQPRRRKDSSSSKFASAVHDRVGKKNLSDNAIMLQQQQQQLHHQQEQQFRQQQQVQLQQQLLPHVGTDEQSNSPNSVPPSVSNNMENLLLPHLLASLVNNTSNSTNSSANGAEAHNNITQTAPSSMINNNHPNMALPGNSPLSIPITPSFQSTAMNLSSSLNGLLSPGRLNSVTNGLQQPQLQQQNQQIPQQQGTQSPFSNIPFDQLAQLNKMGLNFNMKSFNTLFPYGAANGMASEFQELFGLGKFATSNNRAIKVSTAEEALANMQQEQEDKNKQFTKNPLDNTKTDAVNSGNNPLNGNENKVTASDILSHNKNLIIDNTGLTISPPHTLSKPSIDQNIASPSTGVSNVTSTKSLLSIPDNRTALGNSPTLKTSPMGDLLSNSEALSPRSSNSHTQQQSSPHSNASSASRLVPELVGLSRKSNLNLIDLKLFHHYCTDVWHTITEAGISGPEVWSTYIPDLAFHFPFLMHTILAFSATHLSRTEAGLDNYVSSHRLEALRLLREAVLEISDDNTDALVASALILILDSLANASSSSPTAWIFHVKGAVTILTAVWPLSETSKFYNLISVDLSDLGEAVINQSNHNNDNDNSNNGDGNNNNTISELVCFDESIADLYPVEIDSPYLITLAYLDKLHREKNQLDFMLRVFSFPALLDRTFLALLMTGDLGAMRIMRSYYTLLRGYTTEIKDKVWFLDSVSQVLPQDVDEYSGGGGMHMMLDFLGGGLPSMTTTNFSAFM
Assay: PBM E-score (8-mer binding enrichment) (E-score (-0.5 to 0.5)); higher = stronger / more preferred TF binding; most listed sequences are background and not binding sites
Conditions: protein concentration: 200 nM; construct: GST-full length
Outline: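 Yeast transcription factors, full-length or as DNA-binding domains, were expressed with a GST tag using PURExpress in vitro transcription/translation. At about 100-200 nM they were applied to universal all-10-mer Agilent arrays, double-stranded by primer extension on fresh or once-stripped slides. Fluorescent anti-GST detected bound protein, and masliner normalised the scans. E-scores for ungapped eight-base words, pooled with reverse complements, came from the Universal PBM Analysis Suite.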

Row | Sequence | PBM E-score
1 | ACTGGTTC | -0.0328
2 | ATCGAGCA | 0.0117
3 | ATGGTCTC | -0.128
4 | CCAACCAG | -0.0857
5 | ATACGTAA | 0.278
6 | CGCAGGCA | -0.107
7 | CAAATGGG | -0.259
8 | CGTCACGA | 0.183
9 | CTCTCCCC | -0.293
10 | GCTTTTCA | -0.00964
11 | CGGCTACA | -0.00011
12 | AGGCACTC | -0.0768
13 | AATAGATA | -0.0505
14 | CTCGCGAG | 0.257
15 | GTCACGTA | 0.169
16 | AATGTTGT | 0.0444
17 | CGGTCCCA | 0.16
18 | CCGGCGAA | 0.108
19 | AATCCGGG | 0.0101
20 | AGTAAGTA | -0.0353
21 | ACCCTGTC | 0.0446
22 | CGACACAA | 0.0541

Row | Sequence | PBM E-score
23 | GCTGCGAA | 0.0942
24 | ACACAGCC | -0.118
25 | GGTTCTTA | -0.133
26 | AGATCACT | 0.0131
27 | GGCCGGGA | -0.0139
28 | CAGATAGC | -0.207
29 | TACGTCTA | 0.0439
30 | AGGTCGTC | 0.106
31 | AAGTACTT | 0.0668
32 | AATCACAT | -0.211
33 | GCCTCGGA | 0.175
34 | GACTCTCA | -0.135
35 | ACACACAT | 0.0907
36 | CAGTTGAG | -0.187
37 | ATACTCAG | 0.0352
38 | AGAGACCT | -0.208
39 | CCATGATA | 0.0128
40 | ACATAAGC | -0.0794
41 | GTGCACCA | -0.222
42 | CATCTAGA | 0.0762
43 | TGTTAACA | -0.209
44 | ACTTTTAG | -0.128

Row | Sequence | PBM E-score
45 | TCCCTCAA | -0.209
46 | GCTAGGAC | -0.337
47 | GATTCGGA | 0.171
48 | ACGTGTCG | 0.0998
49 | CATTGGCC | -0.275
50 | ATGGTCGC | 0.174
51 | CCTACCCA | -0.107
52 | GGATATAA | -0.00476
53 | CGTCCGGC | -0.0232
54 | CCGGTTCA | -0.0366
55 | AAACCGGT | -0.102
56 | GAGGTCAA | -0.199
57 | GCGGTCCA | -0.17
58 | AGCGTAGG | -0.237
59 | ATCCAACC | -0.0702
60 | GAAGAGGC | -0.0544
61 | GCTGAGAC | -0.259
62 | GCTAATGA | -0.15
63 | AGGCCTAT | -0.11
64 | CGAGCTAA | 0.166
65 | GATGCAAA | 0.00056
66 | GATGCCGA | 0.0861

Row | Sequence | PBM E-score
67 | GGCGTGAC | -0.215
68 | AACATCCT | -0.188
69 | GCTGGAGA | -0.0748
70 | GCCGGGTA | -0.0886
71 | AGACGGCT | -0.237
72 | GTATAACA | 0.23
73 | ACACTTGC | -0.0727
74 | CTTGATCC | -0.133
75 | AAATGGTA | 0.0511
76 | AAAATGCC | -0.0142
77 | CCTTAGAA | -0.284
78 | GTTCACAA | 0.135
79 | ACTGATAC | 0.125
80 | CGGAAGGA | -0.0981
81 | GCTCGCCC | -0.0118
82 | AAATCTGC | -0.141
83 | ATTGACAC | -0.165
84 | ATGGTTCA | 0.0295
85 | CTAGCATA | -0.147
86 | GATAACTA | -0.0547
